Measurements as given in PubChem BioAssay AID1346428 (National Center for Advancing Translational Sciences (NCATS), 2018).
In all, about 48,000 compounds went through this assay and about 1,200 (2.5%) were called active. Not shown: some 2% with an inconclusive outcome.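 Rule for the calls: active = activation of at least 60% and not above a set upper limit (about 1 call in 100 departs from these limits); inconclusive = activation of 40% to 60%, or above that upper limit; inactive = activation under 40%.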 The list shows a part of the results.

These molecules were tested against Probable G-protein coupled receptor 32 (Homo sapiens) (UniProt O75388) (assay: qHTS for Agonists of Human Resolvin D1 Receptor DRV1). Settings: CHO-K1 GPR32 beta-arrestin PathHunter luminescence, 90 min; at 76.9 µM; active compounds read high; zero percent set by DMSO-only wells.
Sequence of UniProt O75388 (O75388 whole entry, looked up, the tested form may be a part): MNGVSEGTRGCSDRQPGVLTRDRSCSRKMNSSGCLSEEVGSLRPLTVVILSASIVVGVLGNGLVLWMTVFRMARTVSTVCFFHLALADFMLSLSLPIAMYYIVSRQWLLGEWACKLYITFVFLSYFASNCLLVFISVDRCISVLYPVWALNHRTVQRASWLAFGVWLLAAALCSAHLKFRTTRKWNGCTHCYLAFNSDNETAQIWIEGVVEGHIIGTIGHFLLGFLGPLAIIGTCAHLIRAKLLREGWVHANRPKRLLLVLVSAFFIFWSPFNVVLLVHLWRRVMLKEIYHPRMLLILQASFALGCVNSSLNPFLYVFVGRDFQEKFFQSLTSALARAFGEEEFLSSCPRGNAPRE
In short: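 Agonism was scored by beta-Gal fragment complementation (chemiluminescent read, 1 h detection at ambient temperature) reporting beta-arrestin binding to GPR32 in engineered CHO-K1 cells. Compound treatment lasted 90 min at 37 C, normalized to a DMSO basal control.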
Note: 0% is about no effect.

activation, inactive:
CCCC(=O)Nc1nnc(SCc2cc(=O)n3ccccc3n2)s1 -12.3%, COc1ccc(C(=O)Nc2ccc3nc(SCC(=O)N4CCCC4)sc3c2)cc1 -3.9%, O=C(CCn1c(=O)c2cccn2c2cccnc21)N1CCN(c2ccc(F)cc2)CC1 -22.3%, Cn1c(=O)c(=O)n(C)c2cc(S(=O)(=O)N3CCCC3C(=O)Nc3cccc(F)c3)ccc21 (centres undefined) -11.8%, O=C(NC1CCCCC1)c1ccc2c(c1)N(Cc1ccccc1F)C(=O)c1ccccc1S2 -12%, Cc1cccc(NC(=O)CSc2nnc(CNC(=O)c3cccc(C)c3)n2-c2ccccc2)c1 -8.88%, CCCCn1c(CN2CCN(c3ccc(OC)cc3)CC2)nc2c1c(=O)[nH]c(=O)n2C -14.2%, Cc1ccc(CNC(=O)C2CCN(Cc3nc(-c4ccccc4C)oc3C)CC2)cc1 0.32%, CCN(CCN(C)C)C(=O)Cn1ncc2c([nH]c3ccc(C)cc32)c1=O -5.11%, CN1CCN(c2c(F)cc3c(=O)c(C(=O)O)cn4c3c2OCN4C)CC1 -7%, Cc1ccn2c(Nc3ccccc3C)c(-c3ccncc3)nc2c1 -25.4%, COc1ccc(-c2noc(CN(C(=O)c3ccccc3Cl)C(C)C)n2)cc1 -18%, Cc1ccccc1Cn1c(-c2cccs2)nc2ccccc21 -21.5%, Cc1ccc2nc(CSc3nnc(NC(=O)CC(C)C)s3)cc(=O)n2c1 -2.59%, COC(=O)c1cc(Cl)c(NC(C)=O)cc1OC -25.3%, Cc1ccc(Cn2c(CN3CCC(C(=O)NCc4cccnc4)CC3)cc3ccccc32)cc1 26.9%, CCOc1ccc(CNC(=O)CCC(=O)N2Cc3ccccc3Oc3ncccc32)cc1 2.2%, OC(CCCN1CCCCC1)(c1ccccc1)c1ccccc1 -2.06%, Cc1csc2nc(COC(=O)c3cccc(NC(=O)COc4ccccc4Cl)c3)cc(=O)n12 1.17%, CCN(CC)CCOC(=O)C(c1ccccc1)c1ccccc1 -1.49%, CCc1cccc(NC(=O)Cc2nc(-c3ccc(OC)cc3)no2)c1 -7.21%, COCCCNC(=O)c1nn(C)c2c1CS(=O)(=O)c1ccccc1-2 -4.73%, COc1ccc(-c2cn3c(n2)sc2cc(C(=O)NC(C)C45CC6CC(CC(C6)C4)C5)ccc23)cc1 (centres undefined) -8.29%, COC(=O)CCCn1c(-c2ccc(C)cc2)c(C)n2c3c(=O)n(C)c(=O)n(C)c3nc12 19.7%
